Measured values as given in PubChem BioAssay AID757 (NMMLSC, 2007).
Out of some 190,000 compounds screened, about 520 (0.27%) were called active. The shares of active, inactive and inconclusive entries below differ from those in the screen.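 The calls were made as follows: active = GTP binding activity at least 20 points away from the 100% control level, either lower or higher; inconclusive = compound flagged as likely green fluorescent, judged across all proteins; inactive = the rest.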

The compounds below were run against Ras-related C3 botulinum toxin substrate 1 (Homo sapiens) (UniProt P63000) (assay: wildtype Rac1 GTP binding modulators, primary screen, biochemical, GST-Rac1 beads, flow cytometry, multiplex (AID 757)). Settings: fluorescent GTP binding, at 10 µM, actives lie on both sides, 0 = cold GTP competed, 100 = untreated.

| SMILES | GTP binding activity (% of control) |
| --- | --- |
| Cc1cccc(-c2nnc(NC(=O)c3ccc(N4C(=O)CCC4=O)cc3)s2)c1 | inactive: 113% |
| CCOc1ccc(NC(=O)c2ccc(NC(=O)COC(=O)Cc3ccc(OC)cc3)cc2)cc1 | inconclusive: 90% |
| C=CCNC(=O)/C(=C\C=C\c1ccccc1)NC(=O)c1ccc(OCCCC)cc1 | inconclusive: 91% |
| O=C(NCc1ccncc1)C(=O)NCC(c1ccco1)N1CCN(c2ccc(F)cc2)CC1 (stereo not given) | inconclusive: 104% |
| CCCN(C(=O)CSc1nnc(-c2ccoc2C)n1N)C1CCS(=O)(=O)C1 (stereo not given) | inconclusive: 103% |
| CC(=O)c1cccc(S(=O)(=O)Nc2cccc(S(=O)(=O)NC3=NCCC3)c2)c1 | inconclusive: 97% |
| COc1cccc(CNC(=O)CCC2CCCN(c3cc(C)nc(N4CCCC4)n3)C2)c1 (stereo not given) | inactive: 92% |
| COc1ccccc1NC(=O)c1ccccc1SC | inconclusive: 111% |
| CC1Cc2ccccc2N1C(=O)CSc1nnc2c(n1)[nH]c1ccc(F)cc12 (stereo not given) | inconclusive: 87% |
| COc1ccccc1/C=C1\S/C(=N/NC(=O)c2cccc(Br)c2)NC1=O | inconclusive: 90% |
| CC(C)(C)c1ccc(C(=O)CSc2ncn[nH]2)cc1 | inactive: 105% |
| O=C(/C=C/c1ccc(Cl)cc1Cl)NCCSCc1ccccc1 | inconclusive: 94% |
| COc1ccccc1N(CC(=O)NC1CCCC1)C(=O)c1oc(C(C)(C)C)cc1C | inactive: 97% |
| NC(=O)c1cccnc1Oc1cccc(Cl)c1 | inconclusive: 106% |
| CC(NC(=O)/C(C#N)=C1\N=C(NC(=O)c2cccs2)c2ccccc21)c1ccccc1 (stereo not given) | inconclusive: 102% |
| Cc1ccc(C(=O)NC(=S)/C=C2\N(C)c3ccccc3C2(C)C)cc1 | inactive: 103% |
| COc1ccccc1NC(=O)c1ccc2nc(-c3ccccc3)c(-c3ccccc3)nc2c1 | inconclusive: 103% |
| O=C(NC1CCCCC1)C(c1cccs1)N(C(=O)c1ccco1)c1ccc2c(c1)OCCO2 (stereo not given) | inactive: 99% |
| CCCc1ccccc1OCCNC(=O)c1cc(=O)n(C)c(=O)n1C | inactive: 101% |
| COC(=O)COc1ccc(/C=C2/SC(=O)N(CC(=O)N3CCCC3)C2=O)cc1Br | inconclusive: 103% |
| Cc1ccc(S(=O)(=O)/N=c2\ccc(Cl)cn2C(F)F)cc1 | inactive: 102% |
| CCn1cc(C(=O)NCc2ccco2)c(=O)c2cc(S(=O)(=O)N3CC(C)CC(C)C3)ccc21 (stereo not given) | inconclusive: 95% |
| CSc1nc(=O)n2cc(C)ccc2n1 | inactive: 98% |

| SMILES | GTP binding activity (% of control) |
| --- | --- |
| Cc1nnc(SCC(=O)c2c(N)n(Cc3ccccc3)c(=O)n(C)c2=O)n1C | inconclusive: 91% |
| Cc1ccc(C(=O)Nc2ccc3c(c2)OCO3)cc1S(=O)(=O)N1CCCC1 | inconclusive: 87% |
| CCN(C(=O)Cn1cnc2cc([N+](=O)[O-])ccc2c1=O)C1CCS(=O)(=O)C1 (stereo not given) | inconclusive: 90% |
| CS(=O)(=O)N1CCN(c2ccccc2NC(=O)C(c2ccccc2)c2ccccc2)CC1 | inactive: 104% |
| CCCn1c(N)c(C(=O)CSc2nc3ccccc3c(=O)n2Cc2ccccc2)c(=O)[nH]c1=O | inconclusive: 91% |
| O=C(NCCCn1ccnc1)C(=O)c1cn(CC(=O)N2CCCCCC2)c2ccccc12 | inactive: 100% |
| O=C(CCCOc1ccccc1)NCc1ccco1 | inconclusive: 107% |
| CCn1c(OC)nc2c1c(=O)n(C)c(=O)n2C | inconclusive: 95% |
| Cc1ccc2nc3c(cc(C(=O)NC4CCCC4)c(=N)n3CCCn3ccnc3)c(=O)n2c1 | inconclusive: 89% |
| CCn1ncc(CN2CCN(Cc3cccc(OC)c3)C(CCO)C2)c1C (stereo not given) | inactive: 92% |
| COc1cc(OC)c(C2N(C)c3ccccc3N2C)cc1OC | inconclusive: 108% |
| O=C(O)CN(c1ccccc1)S(=O)(=O)c1cc(C(F)(F)F)cc(C(F)(F)F)c1 | inactive: 96% |
| Cc1ccc(CSc2ccc3nnc(-c4cccnc4)n3n2)cc1 | inconclusive: 93% |
| Cc1nc2ccccc2c(=O)n1/N=C/c1ccc(O)cc1O | inconclusive: 96% |
| Cc1noc(NC(=O)c2ccccc2C(F)(F)F)c1C#N | inactive: 98% |
| CN(C)c1ccnc(N(Cc2ccccc2)Cc2ccccc2)c1C#N | inactive: 98% |
| COc1ccc(S(=O)(=O)N2CCC(C(=O)Nc3ccc(F)cc3)CC2)c2cccnc12 | inactive: 98% |
| CCOC(=O)Cc1csc(NC(=S)NC(=O)C(C)(C)C)n1 | inactive: 104% |
| CCOC(=O)N1CCN(C(=O)c2ccc(Cn3c(=S)[nH]c4cc(OCC)c(OCC)cc4c3=O)cc2)CC1 | inconclusive: 96% |
| c1ccc(C2=Nn3c(nnc3-c3ccncc3)SC2)cc1 | inconclusive: 103% |
| Cc1ccc(C(=O)Nc2ccc(Br)cc2)cc1S(=O)(=O)Nc1ccccn1 | inconclusive: 88% |
| COc1cc(/C=N/NC(=O)c2cn(-c3cccc(C)n3)cn2)ccc1O | inconclusive: 88% |
| COc1cc(/C=C2/SC(=S)NC2=O)ccc1OS(=O)(=O)c1ccc(C)cc1 | inactive: 96% |

| SMILES | GTP binding activity (% of control) |
| --- | --- |
| COc1cccc(/C=C2\SC(=S)N(NC(=O)c3ccncc3)C2=O)c1 | inconclusive: 75% |
| NC(=O)CSc1nnc(-c2ccc(O)cc2)n1Cc1ccco1 | inconclusive: 81% |
| O=C(CSc1nnc(CNC(=O)c2cccs2)o1)NC1CCCC1 | inconclusive: 105% |
| COc1ccc(N(CC(=O)O)S(=O)(=O)c2ccccc2[N+](=O)[O-])c(OC)c1 | inconclusive: 94% |
| CCOc1ccc(-n2c(=O)[nH]cc(C(=O)Nc3ccc(OC)c(OC)c3)c2=O)cc1 | inactive: 93% |
| CC1CCc2c(sc(NC(=O)COC(=O)c3ccc(O)cc3)c2C#N)C1 (stereo not given) | inactive: 92% |
| COc1ccc(CC(=O)OCc2cc(=O)n3cc(Br)ccc3n2)cc1OC | inactive: 101% |
| CN(C)c1ccc(/C=C/C(=O)c2ccc3c(c2)OCCO3)cc1[N+](=O)[O-] | inconclusive: 94% |
| CCC(Sc1nc2cc3c(cc2c(=O)n1Cc1ccco1)OCO3)C(=O)Nc1ccccc1OC (stereo not given) | inconclusive: 98% |
| O=C(N1CCOCC1)C12CC3CC(C1)CC(n1cnc(Cl)n1)(C3)C2 | inactive: 105% |
| COc1ccc(O)c(CNc2ccccc2F)c1 | inconclusive: 94% |
| COc1cc(C(C)=O)ccc1Oc1ncnc2c1cnn2-c1ccc(F)cc1 | inactive: 102% |
| COc1cc(CN(C2CCCCC2)S(=O)(=O)c2ccc(S(=O)(=O)N(C)C3CCCCC3)cc2)cc(OC)c1OC | inactive: 109% |
| Cc1ccc(Nc2cc(-n3nc(C)cc3C)ncn2)c(C)c1 | inconclusive: 99% |
| CCn1c(SCC(=O)Nc2ccc3c(c2)c2ccccc2n3CC)nnc1-c1cnccn1 | inconclusive: 88% |
| O=C(Cn1cnc([N+](=O)[O-])c1)NC1CCCC1 | inactive: 103% |
| COCCN1Cc2cccc(C(=O)Nc3cc(C)cc(C)c3)c2C1=O | inconclusive: 88% |
| CCOCCCNC(=O)c1ccc(Cn2c(=S)[nH]c3c([nH]c4ccc(OC)cc43)c2=O)cc1 | inconclusive: 98% |
| CC(C)CC(NC(=O)CNC(=O)C1O[C@@H]2OC(C)(C)O[C@@H]2[C@H]2OC(C)(C)O[C@@H]12)C(=O)O (stereo not given in full) | inactive: 99% |
| CC(C)C(NCc1c(Cl)cccc1Cl)C(=O)O (stereo not given) | active: 124% [activator] |
| COc1ccc(CN=C(Nc2ccccc2)SC2CC(=O)N(C)C2=O)cc1 (stereo not given) | inactive: 104% |
| COc1ccc(-c2cc(C(F)(F)F)n3nc(C(=O)O)cc3n2)cc1OC | active: 77% |
| COc1ccc(/C=C(/NC(=O)c2cccc([N+](=O)[O-])c2)C(=O)O)cc1 | inactive: 99% |

| SMILES | GTP binding activity (% of control) |
| --- | --- |
| CCn1c(SCC(=O)Nc2nc3ccc(OC)cc3s2)nc2c1c(=O)n(C)c(=O)n2C | inconclusive: 93% |
| Cc1nnc2ccc(-c3cccc(NS(C)(=O)=O)c3)nn12 | inconclusive: 91% |
| O=c1c2cnn(-c3ccccc3)c2ncn1Cc1cccnc1 | inconclusive: 102% |
| Cc1ccc(C(=O)Nc2cccc([N+](=O)[O-])c2)cc1S(=O)(=O)Nc1cccc(C(=O)O)c1 | inconclusive: 88% |
| Cc1cccc(OCC(=O)N/N=C/c2ccc3c(c2)OCO3)c1 | inactive: 82% |
| O=C(c1cccs1)N1CCCC(c2ccccc2)C1 (stereo not given) | inconclusive: 95% |
| FC(F)(F)c1cccc(-c2nnc3ccc(C(F)(F)F)cn23)c1 | inconclusive: 106% |
| Cc1ccc(S(=O)(=O)NCCCCCC(=O)NC(C)(C)CO)cc1 | inconclusive: 106% |
| O=C(/C(Cl)=C/Nc1ccc(Br)cn1)C(F)(F)F | inactive: 98% |
| Cc1cccc(-n2cccc2)c1C#N | inconclusive: 102% |
| CC(NC(=S)Nc1ccc([N+](=O)[O-])cc1)c1ccncc1 (stereo not given) | inactive: 96% |
| Cc1ccc(-c2nc3ccccc3[nH]2)cc1NC(=O)/C=C/c1ccco1 | inactive: 102% |
| Cc1ccsc1/C=N/NC(=O)CNC(=O)c1ccc(S(=O)(=O)N2CCOCC2)cc1 | inactive: 101% |
| Cc1ccc(C)c(NC(NC(=O)c2ccccn2)C(Cl)(Cl)Cl)c1 (stereo not given) | inactive: 93% |
| OCCNC1=NCCN1 | inconclusive: 102% |
| COC(=O)CSc1nnc(-c2ccco2)o1 | inconclusive: 106% |
| O=C(Nc1ccccc1Cl)N1CCN(c2ccc3nnc(-c4ccccc4)n3n2)CC1 | inconclusive: 88% |
| CSc1nc(N)c(C#N)c(-c2ccccc2Cl)c1C#N | inconclusive: 103% |
| O=C(NN1C(=O)c2ccccc2NC1c1ccccc1OCc1ccccc1)c1ccncc1 (stereo not given) | inconclusive: 101% |
| O=C(NC1CCCCC1)C(c1ccco1)N(Cc1ccco1)C(=O)c1ccco1 (stereo not given) | inactive: 100% |
| COc1cccc(C2CC(c3ccccc3)Nc3ncnn32)c1 (stereo not given) | active: 123% [activator] |
